Measured values: article PMC5006944 (Cell, 2016)

Test system: AKT phosphorylation in MIAPaCa-2, HCT-116, and MDA-MB-231 cells
Experiment: AKT phosphorylation in EGF-stimulated mutant KRAS cells
Details: EGF-stimulated MIAPaCa-2, HCT-116, MDA-MB-231

**Q.** For `COc1cc(OC)c(/C=C/S(=O)(=O)Cc2ccc(OC)c(NCC(=O)O)c2)c(OC)c1` [RGS, rigosertib], which AKT phosphorylation is on record?
**A.** The AKT phosphorylation was “reduction in AKT phosphorylation”.
